Consider 81 compounds from PubChem BioAssay (NCI).

Molecules are shown by their SMILES. Several values for one entry are separate records, joined by “and”; a condition that tells them apart may be missing. Equal values may be shown once.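 Briefly, cells in 96-well plates were exposed to five compound concentrations for 48 h, and endpoints were estimated by linear interpolation. GI50 marks 50% less growth. Definition used: TGI = concentration required for complete inhibition of growth.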 Square brackets hold non-standard residues; d marks the D form. Peptide text beside a SMILES is read from it. * marks the point of attachment. ξ: configuration not given here. ξF = NC(Cc1ccccc1)C(=O)O; Cbz = O=C(OCc1ccccc1)*; Aib = CC(C)(N)C(=O)O; NHNH2 = NN*

In the test the test system is NCI-H322M lung. Briefly: NCI tumour cell line growth inhibition, 48 h.
Regarding `COc1ccc(C2N(c3ccc(F)cc3)C(=O)N3C(c4ccc(OC)cc4)N(c4ccc(F)cc4)C(=O)N23)cc1` (configuration not stated), the TGI is above 100 µM.

In turn, `O=c1[nH]c2nnc(COc3ccc(Cl)cc3Cl)n2nc1Cc1ccccc1` yielded a TGI above 100 µM.

`COC(=O)C1CCC(=O)N1CN(C(C)=O)c1ccccc1Cl` (configuration not stated) yielded a TGI above 100 µM.

In the case of `NC(Cc1ccc(OCc2ccccc2)cn1)C(=O)O` (configuration not stated), the TGI is above 100 µM.

For the compound `CC1(C)O[C@@H]([C@H](O)CO)[C@H](O)[C@@H](C2SCCCS2)O1`, the TGI was above 100 µM.

On to `c1ccc([P+](CCSCCSCC[P+](c2ccccc2)(c2ccccc2)c2ccccc2)(c2ccccc2)c2ccccc2)cc1`, for which the TGI is above 100 µM.

As for `O=Nc1ccc(O)c(=O)cc1`, the GI50 is 9.58 µM and the TGI was 32.9 µM.

Regarding `CCCCCCCCCCCCOC1C(CNC(=O)C2OC3OC(C)(C)OC3C2NC(=O)Nc2ccc(CC(=O)OC)cc2)OC2OC(C)(C)OC21` (configuration not stated), the GI50 was above 100 µM and the TGI is above 100 µM.

In turn, `Cc1nc(N)c(N2CCN(C(=O)O)CC2)c(=O)[nH]1` returned a TGI above 100 µM.

Consider `O=C(Oc1cccc2cccnc12)c1cc2c(cc1Cl)SC(N(c1ccc(F)cc1)S(=O)(=O)c1ccc(Br)s1)=NS2(=O)=O`, for which the GI50 is 41.2 µM and the TGI was above 100 µM.

`COc1ccc2nc3c(C(=O)NCCN(C)C)cccc3cc2c1` returned a TGI of 6.5 µM.

On to `CC(C)C1=CC(=O)C(C)(C2C(O)CC3(C)C4CC=C5C(CCC(OC6OC(CO)C(O)C(O)C6OC6OC(C)C(O)C(O)C6O)C5(C)C)C4(C)C(=O)CC23C)O1` (configuration not stated), for which the TGI was above 100 µM.

In turn, `CC(C)(C)OC(=O)NC(CCCCNC(=O)OCc1ccccc1)C(=O)NCCNc1ccc(NCCNC(=O)C(CCCCNC(=O)OCc2ccccc2)NC(=O)OC(C)(C)C)c2c1C(=O)c1ccccc1C2=O` (configuration not stated) returned a TGI above 100 µM.

Compound `CCN(CC)C(=O)Cc1c(C(=O)N(CC)CC)c(=O)nc2sccn12` returned a TGI above 100 µM.

The compound `Clc1ccccc1/C=c1\nc(-c2ccccc2)n2c1nc1ccccc12` returned a TGI above 100 µM.

In the case of `Cc1coc2c1C[C@@]1(C)[C@H](CCC[C@@H]1C)[C@H]2O`, the TGI is above 100 µM.

In the case of `NNC(=S)N/N=C(\C(=O)Nc1cccc(O)c1)C1C(=O)NC(=S)NC1=O`, the TGI was above 100 µM.

`CCOC(=O)C(/C(=N/S(=O)(=O)c1cc(C)c(Cl)cc1[S-])[n+]1ccc(N(C)C)cc1)=C(/O)c1ccc([N+](=O)[O-])cc1` had a TGI of 36.2 µM.

Consider `COCC1CCCN1c1ccc(C=N/C(C#N)=C(\N)C#N)cc1` (configuration not stated), for which the GI50 is 58.5 µM and the TGI is above 100 µM.

`CC(O)(Cc1ccccc1C#N)Cc1ccccc1C#N`: the TGI is above 100 µM.

On to `Cc1cc2nc3c4cc(O)ccc4n(CCN(C)C)c3nc2cc1C`, for which the GI50 is 0.614 µM and the TGI stood at 6.59 µM.

Take `O=C1/C(=C\Oc2ccc(F)cc2)N2CCC1CC2`: the TGI is above 100 µM.

On to `CCOC(=O)c1ccc(NC(=O)Nc2nncs2)cc1`, for which the GI50 was 0.508 µM and the TGI amounted to 29.6 µM.

The compound `COc1ccc(C(=O)C2=NON3OC23C(=O)c2ccc(OC)cc2)cc1` (configuration not stated) yielded a TGI above 100 µM.

As for `Cc1cc(O)c(=O)cc2c1C[C@H]1CC(C)(C)/C=C/C[C@]3(C)Oc4cc(=O)c(O)cc(C)c4C[C@H]3C[C@H](O)[C@@]1(C)O2`, the GI50 was 0.0326 µM and the TGI is above 100 µM.

Turning to `Cc1nc2ccc(Nc3nc(Cl)nc(N4CCOCC4)n3)cc2n1Cc1ccccc1`, the GI50 is 2.61 µM and the TGI was determined as 7.34 µM.

Consider `N#Cc1nc(CCN2C(=O)c3ccccc3C2=O)oc1N`, for which the TGI is above 100 µM.

For `COC(=O)C(Cc1cc(OC)c(OC)c(OC)c1)C(=O)OC`, the TGI is above 320 µM.

For the compound `C[N+]1(CCC(=O)c2ccco2)CC2CCC(CC2)C1` (configuration not stated), the TGI is above 100 µM.

Regarding `Fc1cc2[nH]ncc2c2c3c(c(-c4cn[nH]c4C(F)(F)F)nc12)CCCC3`, the GI50 was 2.14 µM and the TGI turned out to be 8 µM.

In the case of `CC(C)OC(=O)c1ccc(CCC2=CC(=O)C=CC2=O)cc1`, the TGI was 92.6 µM.

For `COc1cc2c(cc1OC)[C@@H](Nc1ccc(C#N)cc1)C1COC(=O)[C@@H]1C2c1cc(OC)c(O)c(OC)c1` (some centres not stated), the GI50 was 4.79 µM and 7.72 µM; the TGI was 85.9 µM and > 100 µM.

As to `COc1ccc(/C=C(/C#N)C(N)=O)c(OC)c1`, the TGI was above 100 µM.

The compound `CC(C)C1C(=O)N(c2c(F)c(F)c(F)c(F)c2F)C(=S)N1CCS(=O)c1ccccc1` (configuration not stated) registered a TGI of 31.1 µM.

For the compound `CCOc1cc(C2SCC(=O)N2c2ccc(Oc3ccc(Cl)cc3)c(Cl)c2)ccc1O` (configuration not stated), the TGI stood at 32.3 µM.

`Cc1ccccc1N=Nc1c(O)c(S(=O)(=O)O)cc2cc(S(=O)(=O)O)ccc12` had a TGI above 100 µM.

For `COc1cc2oc(=O)ccc2cc1C(=O)CC(C)C`, the TGI is above 100 µM.

For `O=c1[nH]c(=O)n(COCc2ccccc2)c2ccsc12`, the TGI is above 100 µM.

With `COc1ccc(NC(=O)C(=O)c2c(O)c3ccc(O)cc3oc2=O)c([N+](=O)[O-])c1`, the TGI was above 100 µM.

As for `CCN(CC)c1ccc(/C=N/NC(=O)CSc2nc3ccccc3c(=O)n2CCc2ccc(S(N)(=O)=O)cc2)c(O)c1`, the GI50 is 2.23 µM and the TGI is above 100 µM.

`Cn1cnc([N+](=O)[O-])c1Sc1nc(N)nc2c1ncn2C1OC(CO)C(O)C1O` (configuration not stated) returned a TGI above 100 µM.

`CC(=O)O[C@H]1C(=O)[C@@]2(C)C(C(OC(=O)c3ccccc3)[C@]3(O)C[C@H](OC(=O)C(OC(=O)CCCC(=O)NCCCN(C)C)C(NC(=O)c4ccccc4)c4ccccc4)C(C)=C1C3(C)C)C1(OC(C)=O)COC1C[C@@H]2O` (some centres not stated) showed a TGI above 86.8 µM.

`O=C(CC(Cl)=C(Cl)Cl)Nc1ccccc1`: the GI50 is above 100 µM and the TGI was above 100 µM.

`O=C1C2Nc3ccccc3SC2C(=O)N1c1ccc(Br)cc1` (configuration not stated) displayed a TGI above 100 µM.

`Cc1ccn2c(=O)cc(CN3CCOCC3)nc2c1` had a TGI above 100 µM.

Turning to `COc1ccc(C2=C(Cl)c3cc(OC)c(OC)cc3C2OC)cc1OC` (configuration not stated), the TGI was above 100 µM.

The compound `OC(c1ccccc1)(c1ccccc1)c1nccc2ccccc12` yielded a TGI above 100 µM.

The compound `COc1ccc(C/C(=N/O)C(=O)NCCc2cc(Br)c(OCCCN(C)C)c(Br)c2)cc1Br` yielded a TGI of 30.5 µM.

With `CC[C@H](C)[C@H]1NC(=O)[C@@H](NC(=O)[C@@H](CC(C)C)N(C)C(=O)C2CCCN2C(=O)[C@H](C)O)[C@@H](C)OC(=O)[C@H](Cc2ccc(OC)cc2)N(C)C(=O)[C@@H]2CCCN2C(=O)[C@H](CCCCNC(=O)OCc2ccccc2)NC(=O)[C@H](C)C(=O)[C@H](C(C)C)OC(=O)C[C@@H]1O` (some centres not stated), the TGI came out at 16.7 µM.

Consider `CCOC(=O)/C(=C/N1CCN(C(=O)c2ccco2)C1=S)C(=O)c1ccccc1`, for which the GI50 was 14.2 µM and the TGI is above 50 µM.

As for `O=C(CC(=O)N1N=C(N2CCCCC2)CC1c1ccccc1)Nc1ccccc1` (configuration not stated), the TGI is above 100 µM.

The compound `CN1C(=O)CCC1(O)C1C=CC=CC1` (configuration not stated) registered a TGI above 100 µM.

In the case of `COC(=O)C(N)CCCC(N)C(=O)NC(C)C(=O)NC(CCC(=O)NCCNCCNc1c2ccccc2nc2cccc([N+](=O)[O-])c12)C(N)=O` (configuration not stated), the TGI is 58.5 µM.

On to `CN(c1ncccc1CNc1nc(Nc2ccc3c(c2)CC(=O)N3)ncc1C(F)(F)F)S(C)(=O)=O`, for which the GI50 was 2.24 µM and 3.03 µM; the TGI is 17.3 µM and > 10 µM.

Turning to `CC(=O)c1ccc2c(c1)c1cc(C(C)=O)ccc1n2CCNC(C)C`, the GI50 was 0.412 µM and the TGI is 8.42 µM.

For `Cc1nc(-n2nc(-c3ccccc3)cc2-c2ccccc2)sc1C(=O)/C=C/c1ccc(/C=C/C(=O)c2sc(-n3nc(-c4ccccc4)cc3-c3ccccc3)nc2C)cc1`, the TGI came out at 73.7 µM.

`COc1ccc(N=NC(=O)NC(Cc2ccccc2)C(=O)O)cc1` (configuration not stated) showed a TGI above 100 µM.

Turning to `Cc1ccc(S(=O)(=O)NC(=O)NCCc2cnc[nH]2)cc1`, the TGI was above 100 µM.

`O=[N+]([O-])c1cccc2nc3ccccc3c(NCCCn3ccnc3[N+](=O)[O-])c12` registered a TGI of 0.0126 µM.

Take `NS(=O)(=O)c1ccc(Nc2cc(-c3cccc(O)c3)[nH]n2)cc1`: the GI50 was above 25 µM and the TGI was above 25 µM.

In the case of `CC1=Nc2ccccc2S/C1=C(/C)NNS(=O)(=O)c1ccc(C)cc1`, the TGI was above 100 µM.

As to `Cc1cn([C@@H]2C[C@@H]2CO)c(=O)[nH]c1=O`, the TGI was above 100 µM.

For `NC1=CN(CCCO)C2=N/C(=C\c3ccccc3)C(=O)N12`, the TGI is above 100 µM.

On to `CC(C)(Br)C(=O)N1CCN(C(c2ccccc2)c2ccccc2)CC1`, for which the TGI was found to be 34.8 µM.

`S=c1[nH]nc(CNc2ccc(-c3n[nH]c(=S)n3-c3ccc(Cl)cc3)cc2)n1-c1ccc(Cl)cc1` had a TGI of 63 µM.

Compound `O=c1[nH]c2ccccc2c(=O)n1/N=C/c1ccc(O)cc1` yielded a TGI above 100 µM.

Take `COc1ccc2c(c1)/C(=C\c1c(-c3cc(OC)ccc3OC)nc3sc(C)cn13)C(=O)N2C`: the GI50 is 56.9 µM and the TGI is above 100 µM.

As for `N#Cc1c(-c2ccc(Cl)c(Cl)c2)c(-c2ccc(Cl)c(Cl)c2)nn(CC(=O)O)c1=O`, the TGI was above 100 µM.

The compound `COC(=O)c1n[nH]c(C)c1N=NN(C)CCC#N` showed a TGI of 54.2 µM.

For the compound `O=C(Cc1ccc(/C=C/C(=O)c2ncc[nH]2)cc1)Nc1ccc(F)cc1`, the GI50 was 3.35 µM and the TGI was found to be 10.2 µM.

For the compound `CC(C)=CCC[C@@H](C)/C=C/C=C(\C)C(=O)CC[C@@H]1CC[N@+]2(C)CCCC[C@H]12`, the TGI was above 100 µM.

For `COC(=O)C(NC(=O)C(CC(=O)OC(C)(C)C)NC(=O)OC(C)(C)C)C(O)c1ccccc1` (configuration not stated), the TGI was above 100 µM.

Consider `CC(N)C(Cc1ccc(Cl)cc1)c1ccc(Cl)cc1` (configuration not stated), for which the GI50 was 13.2 µM and the TGI was 26.6 µM.

`Cc1c(Cl)cccc1NC(=O)C(=O)C(C(=O)c1ccccc1-c1ccccc1)C1OC(=O)c2ccccc21` (configuration not stated) gave a TGI of 46.9 µM.

Take `OC(c1ccc(F)cc1)C(F)(F)c1nc2ccccc2o1` (configuration not stated): the TGI was above 100 µM.

Take `CC(C)(NC(=O)OCc1ccccc1)C(=O)NC(Cc1ccccc1)C(=O)NN` (configuration not stated) (Cbz-[Aib]-[ξF]-NHNH2): the TGI was above 100 µM.

Turning to `Nc1ccc2c(O)cc(=O)[nH]c2n1`, the TGI was above 100 µM.

The compound `O=c1ccn(CC2(CO)CCC2)c(=O)[nH]1` registered a TGI above 100 µM.

As to `COc1ccc(C2CC(c3cccc(Nc4ccnc5cc(Cl)ccc45)c3)=NN2C=O)cc1` (configuration not stated), the GI50 was above 100 µM and the TGI was above 100 µM.

On to `O=c1[nH]c2ccccc2c2ccccc12`, for which the GI50 is above 100 µM and the TGI is above 100 µM.

On to `CC(ON(C(c1ccccc1)C(C)C)C(C)(C)C)c1ccccc1` (configuration not stated), for which the TGI came to 58.3 µM.
